Measurements taken from the RNAGym collection of RNA variant scans (doi:10.1073/pnas.2313332121).
Variants at the floor of the assay are shown more often than the library holds them.

B1: TPR 5TU (parent)
chain: GGAUCUUCUCGAUCUAACAAAAAAGACAAAUCUGCCACAAAGCUUGAGAGCAUCUUCGGAUGCAGAGGCGGCAGCCUUCGGUGGCGCGAUAGCGCCAACGUUCUCAACUAUGACACGCAAAACGCGUGCUCCGUUGAAUGGAGUUUAUCAUG

Variants of: B1
Assay: polymerase ribozyme fitness, log enrichment relative to wild type (log ratio); higher = more active; in vitro selection for triplet polymerase activity
Method in brief: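 Libraries of mutants in each subunit of a heterodimeric triplet polymerase ribozyme were generated by PCR and transcribed. In triplicate, each went through one in vitro selection round: annealing with biotinylated primer, partner subunit and triplets; frozen incubation at −7 °C; gel excision of extended constructs; streptavidin-bead capture; RT-PCR. Fitness, taken from Illumina sequencing of input and output libraries, is the logarithm of a genotype's enrichment over wild-type enrichment, averaged across replicates with inverse-variance weights. The logarithm is base 2, and genotypes needed ≥10 input reads and ≥1 read per output to be kept.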

| Variant | polymerase ribozyme fitness (log ratio) |
| --- | --- |
| C87A G117C A122C G133U | ≤ -4.2 |
| C87A G124U | ≤ -4.2 |
| C87A G124U U144C | ≤ -4.2 |
| C87A G126A U135C | ≤ -4.2 |
| C87A G128C | ≤ -4.2 |
| C87A G133C | ≤ -4.2 |
| C87A G136A | ≤ -4.2 |
| C87A G141U | -3.64 |
| C87A U102C U127G U139A | ≤ -4.2 |
| C87A U127G | ≤ -4.2 |
| C87A U144A | ≤ -4.2 |
| C87A U144C | ≤ -4.2 |
| C87A U144G | -3.92 |
| C87A U148A | ≤ -4.2 |
| C87G A89U A120C | ≤ -4.2 |
| C87G A98G C99G | ≤ -4.2 |
| C87G A98U | -3.64 |
| C87G A106G | -4 |
| C87G A107U | ≤ -4.2 |
| C87G A110C U146G C149A | ≤ -4.2 |
| C87G A113C A138U U146C | ≤ -4.2 |
| C87G A115C | ≤ -4.2 |
| C87G A119U A122C C149A | ≤ -4.2 |
| C87G A120U | ≤ -4.2 |

| Variant | polymerase ribozyme fitness (log ratio) |
| --- | --- |
| C87G A138G A150C | ≤ -4.2 |
| C87G A142G | -4.14 |
| C87G C93A | -3.63 |
| C87G C93A C105U A107G A137G A142U | ≤ -4.2 |
| C87G C99A | ≤ -4.2 |
| C87G C99U | ≤ -4.2 |
| C87G C105U U127C | -4.1 |
| C87G C114G | ≤ -4.2 |
| C87G C118U | ≤ -4.2 |
| C87G C131G | ≤ -4.2 |
| C87G G92C C105U | 0.371 |
| C87G G94C C125G U135C U151A G152A | ≤ -4.2 |
| C87G G141C | -3.99 |
| C87G U102G C125U | ≤ -4.2 |
| C87G U102G U145G | ≤ -4.2 |
| C87G U104G | ≤ -4.2 |
| C87G U109C U144C | ≤ -4.2 |
| C87G U109G | ≤ -4.2 |
| C87G U111G | ≤ -4.2 |
| C87G U139A A147C | ≤ -4.2 |
| C87G U144G | ≤ -4.2 |
| C87G U146A | ≤ -4.2 |
| C87G U146C | ≤ -4.2 |
| C87U A89C U139G | -2.56 |

| Variant | polymerase ribozyme fitness (log ratio) |
| --- | --- |
| C87U A89G C103U A115C C123U G143U | ≤ -4.2 |
| C87U A91C | ≤ -4.2 |
| C87U A98C | -1.07 |
| C87U A98G A106G | -1.08 |
| C87U A98G C105G C131G | ≤ -4.2 |
| C87U A106G | -0.549 |
| C87U A106G U139C | -3.59 |
| C87U A120G | -1.85 |
| C87U A122C G133U | ≤ -4.2 |
| C87U A122U | -0.5 |
| C87U A137C | -3.99 |
| C87U A142G | -0.623 |
| C87U A150C | -3.7 |
| C87U C93A U135A | ≤ -4.2 |
| C87U C93G G100A | ≤ -4.2 |
| C87U C96U | -1 |
| C87U C99G | -1.97 |
| C87U C99G C131U C132G U144G | ≤ -4.2 |
| C87U C105U | -2.21 |
| C87U C105U C132G | ≤ -4.2 |
| C87U C108G U127C G136A | ≤ -4.2 |
| C87U C108G U145G | ≤ -4.2 |
| C87U C108U | -3.61 |
| C87U C116A G117C C118G | -1.82 |

| Variant | polymerase ribozyme fitness (log ratio) |
| --- | --- |
| C87U C118U A147U | -0.411 |
| C87U C118U U135G | ≤ -4.2 |
| C87U C123U C149G | -2.65 |
| C87U C123U G126U | 0.848 |
| C87U C131A G140A | -3.61 |
| C87U C131U | 1.46 |
| C87U C132U | -1.11 |
| C87U G88C A89G G124C G126A | ≤ -4.2 |
| C87U G88C U90A G124U | ≤ -4.2 |
| C87U G88U | ≤ -4.2 |
| C87U G100A U139C A142C A150U | ≤ -4.2 |
| C87U G100U A106U C149G | ≤ -4.2 |
| C87U G100U C116A | ≤ -4.2 |
| C87U G117C U144A | -1.27 |
| C87U G124A | -0.0826 |
| C87U G136C | -3.65 |
| C87U G141A | -0.85 |
| C87U U90C | -3.33 |
| C87U U90C G141C | ≤ -4.2 |
| C87U U102C A147C | -2.24 |
| C87U U104G | -0.825 |
| C87U U127A C132G | ≤ -4.2 |
| C87U U146G | -0.864 |
| G88A | -3.75 |

| Variant | polymerase ribozyme fitness (log ratio) |
| --- | --- |
| G88A A89G | -3.67 |
| G88A A91C | ≤ -4.2 |
| G88A A97C U101G | ≤ -4.2 |
| G88A A98U A106C | ≤ -4.2 |
| G88A A106U | ≤ -4.2 |
| G88A A113G U144C | ≤ -4.2 |
| G88A A137U | ≤ -4.2 |
| G88A A147C | -4.01 |
| G88A C93G | ≤ -4.2 |
| G88A C103G C123A A142C | ≤ -4.2 |
| G88A C103U | ≤ -4.2 |
| G88A C116A U151G | ≤ -4.2 |
| G88A C116U | -4.05 |
| G88A C118A | ≤ -4.2 |
| G88A C118A A120G | ≤ -4.2 |
| G88A C125U G133A G140C | ≤ -4.2 |
| G88A G92A C132G U148A | ≤ -4.2 |
| G88A G124C | ≤ -4.2 |
| G88A U101G U102G A138U U139G | ≤ -4.2 |
| G88A U102C G112A A122U G136A G141U U146A | ≤ -4.2 |
| G88A U104G A113U A121C C123A U144G U145G | ≤ -4.2 |
| G88C | -4.19 |
| G88C A89C C95U | ≤ -4.2 |
| G88C A89G A98U | ≤ -4.2 |

| Variant | polymerase ribozyme fitness (log ratio) |
| --- | --- |
| G88C A97U | ≤ -4.2 |
| G88C A97U G133C | ≤ -4.2 |
| G88C A98U A142C | ≤ -4.2 |
| G88C A120U G126A U130G U139A | ≤ -4.2 |
| G88C A122C | ≤ -4.2 |
| G88C A137U G143A | ≤ -4.2 |
| G88C A150C U151A | ≤ -4.2 |
| G88C C95G | ≤ -4.2 |
| G88C C95U | ≤ -4.2 |
| G88C C95U A115U | ≤ -4.2 |
| G88C C95U C108A U146A C149A | ≤ -4.2 |
| G88C C95U C118U | ≤ -4.2 |
| G88C C96U | ≤ -4.2 |
| G88C C105A | ≤ -4.2 |
| G88C C105U C116U | ≤ -4.2 |
| G88C C114A C118A G128A G141C | ≤ -4.2 |
| G88C C129G | ≤ -4.2 |
| G88C G100A A107U G141C | ≤ -4.2 |
| G88C G100C A106G U146C | ≤ -4.2 |
| G88C G126C | ≤ -4.2 |
| G88C G140A | ≤ -4.2 |
| G88C U102G | ≤ -4.2 |
| G88C U104G | ≤ -4.2 |
| G88C U104G G128A A137U A138G G140U | ≤ -4.2 |

| Variant | polymerase ribozyme fitness (log ratio) |
| --- | --- |
| G88C U127G | ≤ -4.2 |
| G88C U146A | ≤ -4.2 |
| G88C U146G | ≤ -4.2 |
| G88U | -3.89 |
| G88U A113U A120U C131U U148G | ≤ -4.2 |
| G88U A115G A121U | ≤ -4.2 |
| G88U A121C | ≤ -4.2 |
| G88U A137G | ≤ -4.2 |
| G88U A138C | ≤ -4.2 |
| G88U C93A G126U A138G U144C | ≤ -4.2 |
| G88U C93U | ≤ -4.2 |
| G88U C93U C103U G136C U139C | ≤ -4.2 |
| G88U C93U C105U C149A | ≤ -4.2 |
| G88U C95A U134A | ≤ -4.2 |
| G88U C95G A115U C123G C129G U130A G140U U145G | ≤ -4.2 |
| G88U C95G C125U | ≤ -4.2 |
| G88U C99G | ≤ -4.2 |
| G88U C105A | ≤ -4.2 |
| G88U C114U U148A U151G | ≤ -4.2 |
| G88U G92A C99A C108G U139G | ≤ -4.2 |
| G88U G141C U146G | ≤ -4.2 |
| G88U U90C G133C A137C | ≤ -4.2 |
| G88U U104G A150U | ≤ -4.2 |
